# Data as given in the supplement of paper PMC6531468.
# The other results are listed elsewhere or left out. Read counts after selection give these values, which scatter widely. Scores sum up all selected molecules that hold the word; the word was not tested alone.
# System: IMP3 RRM1-2
# Test: 6-mer SELEX enrichment z-score vs GST control; IMP3 is the RNA-binding protein IGF2BP3; higher = more enriched by binding
# Conditions: construct: RRM1-2 (1-163); SELEX round: R2
# Procedure: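 SELEX-seq with GST-tagged IMP3 RRM1-2 (Met1-Asn163) and an N40 RNA pool, round 2. 6-mer enrichment z-score normalised to GST SELEX. RNA written as DNA (T = U).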
# Sequence of IMP3 RRM1-2 (chain, as listed by the source): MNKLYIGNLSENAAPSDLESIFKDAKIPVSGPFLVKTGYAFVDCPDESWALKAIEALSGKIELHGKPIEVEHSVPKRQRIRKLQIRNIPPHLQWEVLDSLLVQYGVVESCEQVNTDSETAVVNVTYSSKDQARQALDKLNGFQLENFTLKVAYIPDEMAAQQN
row,Sequence,6-mer SELEX enrichment z-score
1,CCGTTC,0.05
2,GTATGA,-0.325
3,CACCTT,0.152
4,GGATAC,-0.214
5,CCTCCA,-0.116
6,GAATTA,-0.795
7,CTTCGC,0.219
8,CTTAGT,0.35
9,AGAGGC,-0.169
10,CGGGAT,-0.14
11,TCTTAA,-0.051
12,CTGCTG,0.121
13,GAAGGA,-1.05
14,CTAGGT,0.275
15,ATGCAT,0.587
16,ACAGCA,1.81
17,GGAAAT,-0.956
18,CAACCC,-0.567
19,TCGCAA,0.049
20,TCTGAC,-0.18

row,Sequence,6-mer SELEX enrichment z-score
1,CTCCCT,0.044
2,TCGAAA,-1.07
3,CTTATT,0.316
4,GGGTGG,0.276
5,TTAGGG,0.353
6,AGCCGC,-0.098
7,ACCCTC,-0.135
8,TCGTGA,-0.13
9,TTACCA,-0.062
10,CGCAGC,0.16
11,ACAATA,0.615
12,TAAGCG,-0.217
13,CTGGGC,0.234
14,AGAAAA,-2.29
15,TGTTTG,0.317
16,TGCTTA,0.16
17,CTGCCT,-0.06
18,ACTATC,0.471
19,GCTTAC,0.1
20,GGCTTA,0.351
